Assay results: the supplement of paper PMC7826260
The list shows a part of the results. Viral Rep nickase domains cut single-stranded DNA in vitro at 3 µM enzyme and 37 °C for 1 h; the strands have 90 letters, of which the middle is given. The score is log2 (uncut reads / reads without enzyme); strong cutting gives strongly negative numbers. There is no active / inactive call. The scaling is to total reads, so uncut sequences can rise above 0 when many others are cut.

tested on: T1, Rep nickase domain of chickpea chlorotic dwarf virus; assay: uncleaved DNA left, log2 of reads against the no-enzyme library (log2 ratio); higher = less cleavage (more negative = more Rep cleavage of the k-mer); sequences stand for … in CTCGTCCG…ACCGGAGA
T1 sequence (protein, residues 1-124, tag omitted): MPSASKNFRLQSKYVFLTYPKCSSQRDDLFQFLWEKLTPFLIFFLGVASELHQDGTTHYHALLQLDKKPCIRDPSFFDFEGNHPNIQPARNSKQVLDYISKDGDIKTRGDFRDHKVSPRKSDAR
Experimental: (§1)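 A pool of 90-nt single-stranded DNAs with seven random bases just before the constant AC of the nick site (name = the seven bases) was cut by 3 µM recombinant His6-SUMO-tagged Rep nickase domain (300 nM DNA, 50 mM HEPES pH 8.0, 50 mM NaCl, 1 mM MnCl2, 1 h, 37 °C, three replicates). Uncut DNA was amplified and sequenced.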

Row | Sequence | uncleaved DNA left (log2)
1 | GCGTGTC | 0.385
2 | CGGGCGA | 0.0447
3 | TCCTCTT | -1.87
4 | CGGCGGC | 0.318
5 | ATATGAG | -0.0193
6 | AACTCTG | 0.549
7 | AGGGGCT | 1.23
8 | CAGTTAT | -1.51
9 | GAGGAGC | 1.35
10 | CACTCCC | -0.644
11 | TCCTTAC | -2.34
12 | GTCCATA | 0.955
13 | AAATCCT | -3.47
14 | CGTAATC | 0.148
15 | CTTTCGT | -1
16 | AGTGCCG | -0.647
17 | GTTAGGG | 0.584
18 | CTTAGTG | -0.683
19 | TACTTGG | -0.325
20 | GTGTATG | 0.583

Row | Sequence | uncleaved DNA left (log2)
21 | GGTTGTT | 0.13
22 | TATTTGG | 0.119
23 | CTCAGAC | 0.265
24 | CGTAGTC | 0.26
25 | AAGTCGT | -0.717
26 | CGGGGAG | 0.34
27 | CGGACCT | 0.862
28 | ACTCCAC | -0.36
29 | ATTTCAC | -0.709
30 | TCAGGTC | 0.811
31 | AACTAGG | 1.02
32 | ACACAAA | -0.0839
33 | TCTAGAT | 0.519
34 | ACACAGA | -0.196
35 | TATGTTC | -1.94
36 | GCCCCTG | 0.228
37 | GACGCGT | -0.72
38 | CTAGCCA | -0.954
39 | GAGACAG | 2.14
40 | TTGGAGA | -0.0148

tested on: T2, Rep nickase domain of faba bean necrotic yellows virus; assay: as above
T2 sequence (protein, residues 1-98, tag omitted): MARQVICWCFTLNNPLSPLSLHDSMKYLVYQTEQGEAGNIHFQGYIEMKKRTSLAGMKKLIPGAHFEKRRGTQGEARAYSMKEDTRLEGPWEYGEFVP
Experimental: as §1

Row | Sequence | uncleaved DNA left (log2)
41 | GCGTGTC | -0.0241
42 | CGGGCGA | 0.164
43 | TCCTCTT | 0.0863
44 | CGGCGGC | 0.121
45 | ATATGAG | 0.134
46 | AACTCTG | 0.0534
47 | AGGGGCT | -0.0221
48 | CAGTTAT | -0.813
49 | GAGGAGC | 0.105
50 | CACTCCC | -0.0266
51 | TCCTTAC | -0.104
52 | GTCCATA | -0.0506
53 | AAATCCT | -0.0153
54 | CGTAATC | -0.139
55 | CTTTCGT | 0.0777
56 | AGTGCCG | -0.138
57 | GTTAGGG | -0.0821
58 | CTTAGTG | 0.00981
59 | TACTTGG | 0.0169
60 | GTGTATG | 0.178

Row | Sequence | uncleaved DNA left (log2)
61 | GGTTGTT | -0.00931
62 | TATTTGG | 0.035
63 | CTCAGAC | -0.11
64 | CGTAGTC | 0.0575
65 | AAGTCGT | -0.0774
66 | CGGGGAG | 0.064
67 | CGGACCT | -0.142
68 | ACTCCAC | -0.0462
69 | ATTTCAC | -0.0937
70 | TCAGGTC | -0.00309
71 | AACTAGG | 0.159
72 | ACACAAA | 0.241
73 | TCTAGAT | 0.0439
74 | ACACAGA | 0.137
75 | TATGTTC | 0.0301
76 | GCCCCTG | -0.0947
77 | GACGCGT | -0.1
78 | CTAGCCA | -0.0125
79 | GAGACAG | 0.104
80 | TTGGAGA | -0.0492

tested on: T3, Rep nickase domain of maize striate mosaic virus; assay: as above
T3 sequence (protein, residues 1-117, tag omitted): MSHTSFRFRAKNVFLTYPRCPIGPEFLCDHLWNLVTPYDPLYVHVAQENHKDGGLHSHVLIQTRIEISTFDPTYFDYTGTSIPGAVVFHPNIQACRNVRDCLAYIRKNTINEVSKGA
Experimental: as §1

Row | Sequence | uncleaved DNA left (log2)
81 | GCGTGTC | 0.18
82 | CGGGCGA | -0.0823
83 | TCCTCTT | -0.322
84 | CGGCGGC | 0.358
85 | ATATGAG | -0.828
86 | AACTCTG | 0.726
87 | AGGGGCT | 1.69
88 | CAGTTAT | 0.229
89 | GAGGAGC | 1.26
90 | CACTCCC | 0.0313
91 | TCCTTAC | -0.683
92 | GTCCATA | 1.75
93 | AAATCCT | -2.91
94 | CGTAATC | -0.341
95 | CTTTCGT | -1.18
96 | AGTGCCG | -1.06
97 | GTTAGGG | 0.114
98 | CTTAGTG | -1.24
99 | TACTTGG | -0.755
100 | GTGTATG | 0.335

Row | Sequence | uncleaved DNA left (log2)
101 | GGTTGTT | 1.33
102 | TATTTGG | -0.323
103 | CTCAGAC | -0.355
104 | CGTAGTC | -0.277
105 | AAGTCGT | -0.748
106 | CGGGGAG | -0.0978
107 | CGGACCT | 1.32
108 | ACTCCAC | -0.758
109 | ATTTCAC | -0.857
110 | TCAGGTC | 1.17
111 | AACTAGG | 0.492
112 | ACACAAA | -0.678
113 | TCTAGAT | 0.963
114 | ACACAGA | -1.01
115 | TATGTTC | -0.522
116 | GCCCCTG | 0.104
117 | GACGCGT | -0.716
118 | CTAGCCA | -0.545
119 | GAGACAG | 2.22
120 | TTGGAGA | -0.725

tested on: T4, Rep nickase domain of porcine circovirus 2; assay: as above
T4 sequence (protein, residues 2-116, tag omitted): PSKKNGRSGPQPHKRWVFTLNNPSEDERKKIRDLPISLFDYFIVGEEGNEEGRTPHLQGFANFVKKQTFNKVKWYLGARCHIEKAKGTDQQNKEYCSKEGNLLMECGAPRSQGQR
Experimental: as §1

Row | Sequence | uncleaved DNA left (log2)
121 | GCGTGTC | -0.0348
122 | CGGGCGA | 0.249
123 | TCCTCTT | -2.93
124 | CGGCGGC | 0.138
125 | ATATGAG | 0.235
126 | AACTCTG | 0.0708
127 | AGGGGCT | 0.198
128 | CAGTTAT | -3.53
129 | GAGGAGC | 0.293
130 | CACTCCC | -1.21
131 | TCCTTAC | -0.089
132 | GTCCATA | 0.0955
133 | AAATCCT | -3.97
134 | CGTAATC | 0.0458
135 | CTTTCGT | -0.105
136 | AGTGCCG | -0.0338
137 | GTTAGGG | 0.048
138 | CTTAGTG | 0.201
139 | TACTTGG | 0.124
140 | GTGTATG | 0.348

Row | Sequence | uncleaved DNA left (log2)
141 | GGTTGTT | -2.38
142 | TATTTGG | 0.0724
143 | CTCAGAC | 0.211
144 | CGTAGTC | 0.0854
145 | AAGTCGT | -3.42
146 | CGGGGAG | 0.184
147 | CGGACCT | 0.00217
148 | ACTCCAC | 0.152
149 | ATTTCAC | 0.0323
150 | TCAGGTC | 0.0146
151 | AACTAGG | 0.0928
152 | ACACAAA | 0.266
153 | TCTAGAT | 0.0658
154 | ACACAGA | 0.202
155 | TATGTTC | -0.284
156 | GCCCCTG | -0.0522
157 | GACGCGT | -0.0168
158 | CTAGCCA | 0.00555
159 | GAGACAG | 0.258
160 | TTGGAGA | 0.0804

tested on: T5, Rep nickase domain of tomato golden mosaic virus; assay: as above
T5 sequence (protein, residues 1-124, tag omitted): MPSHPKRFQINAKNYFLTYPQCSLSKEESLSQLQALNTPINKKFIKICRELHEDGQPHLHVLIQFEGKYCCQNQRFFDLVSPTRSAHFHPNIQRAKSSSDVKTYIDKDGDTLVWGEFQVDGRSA
Experimental: as §1

Row | Sequence | uncleaved DNA left (log2)
161 | GCGTGTC | -0.0389
162 | CGGGCGA | 0.0676
163 | TCCTCTT | -0.0555
164 | CGGCGGC | 0.0519
165 | ATATGAG | -0.0719
166 | AACTCTG | 0.0718
167 | AGGGGCT | 0.073
168 | CAGTTAT | 0.0039
169 | GAGGAGC | 0.192
170 | CACTCCC | -0.0976
171 | TCCTTAC | -0.172
172 | GTCCATA | 0.0731
173 | AAATCCT | -3.64
174 | CGTAATC | -0.17
175 | CTTTCGT | -0.17
176 | AGTGCCG | -0.258
177 | GTTAGGG | 0.12
178 | CTTAGTG | 0.0352
179 | TACTTGG | 0.00787
180 | GTGTATG | 0.305

Row | Sequence | uncleaved DNA left (log2)
181 | GGTTGTT | -0.165
182 | TATTTGG | 0.0114
183 | CTCAGAC | 0.0148
184 | CGTAGTC | 0.0899
185 | AAGTCGT | 0.0435
186 | CGGGGAG | -0.0245
187 | CGGACCT | -0.219
188 | ACTCCAC | -0.0615
189 | ATTTCAC | -0.113
190 | TCAGGTC | 0.0927
191 | AACTAGG | 0.146
192 | ACACAAA | 0.151
193 | TCTAGAT | -0.124
194 | ACACAGA | 0.157
195 | TATGTTC | -0.0383
196 | GCCCCTG | -0.0831
197 | GACGCGT | -0.0215
198 | CTAGCCA | -0.132
199 | GAGACAG | 0.12
200 | TTGGAGA | -0.101
